This data set concerns the molecule itself. Description: NMR 15N spin relaxation.

B1: cHSP27, the isolated α-crystallin domain (ACD) of human HSP27 (HSPB1), […], with the C137S mutation (domain or fragment)
chain: not shown
For B1, the “stoichiometry N” value stood at 2.

One may read the stoichiometry N as the number of molecules, sites or subunits per partner or assembly.
